From the BET-seq Pho4 binding data (Le et al. 2018) come the findings set out here.

The other results are listed elsewhere or left out. Values were computed here from the reads of four pooled replicates and scatter widely.

In the test the target is T1, Pho4 (S. cerevisiae) (UniProt P07270).
T1 sequence: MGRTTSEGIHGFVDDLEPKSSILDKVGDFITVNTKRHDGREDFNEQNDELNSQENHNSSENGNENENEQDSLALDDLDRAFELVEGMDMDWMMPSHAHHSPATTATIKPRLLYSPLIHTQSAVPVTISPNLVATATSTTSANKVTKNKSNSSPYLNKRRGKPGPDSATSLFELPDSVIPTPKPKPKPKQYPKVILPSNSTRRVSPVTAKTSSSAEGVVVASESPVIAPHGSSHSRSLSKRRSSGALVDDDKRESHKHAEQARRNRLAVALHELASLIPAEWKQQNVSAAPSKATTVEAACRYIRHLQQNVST
Description: relative binding free energy (BET-seq); higher = weaker binding. As to conditions: reference: library average.
GAACGCACGTGAGGTG: the “relative binding free energy” value amounted to 0.24 kcal/mol.
Regarding AGTTACACGTGGGCGA, the “relative binding free energy” value is -0.11 kcal/mol.
Turning to GGGATCACGTGAGCGG, the “relative binding free energy” value was determined as 0.45 kcal/mol.
In the case of ATTTGCACGTGAAATA, the “relative binding free energy” value stood at 0.18 kcal/mol.
Under GTGGACACGTGATAGG stands 0.19 kcal/mol; under CCGATCACGTGTTTGG, 0.17 kcal/mol; under CGGAACACGTGATGTT, 0.31 kcal/mol.
Turning to TGATGCACGTGTGGCA, the “relative binding free energy” value is -0.16 kcal/mol.
In the case of ATTGTCACGTGGGGCA, the “relative binding free energy” value was -0.05 kcal/mol.
Turning to GGGGACACGTGGATGG, the “relative binding free energy” value amounted to 0.08 kcal/mol.
In the case of GGTTGCACGTGCCGGA, the “relative binding free energy” value was found to be 0.03 kcal/mol.
In the case of CGCGTCACGTGTTGGG, the “relative binding free energy” value came out at 0.01 kcal/mol.
For the sequence TATCACACGTGGGGTC, the “relative binding free energy” value was determined as 0.02 kcal/mol.
CATTTCACGTGTGGGG: the “relative binding free energy” value was found to be 0.25 kcal/mol.
With GAGGTCACGTGATGTG, the “relative binding free energy” value was 0.14 kcal/mol.
For the sequence AAAGACACGTGGGGGG, the “relative binding free energy” value is -0.08 kcal/mol.
Take TTGGTCACGTGGCCGC: the “relative binding free energy” value was 0.07 kcal/mol.
Turning to TTTCACACGTGGGTGG, the “relative binding free energy” value was -0.02 kcal/mol.
Consider TGGGGCACGTGATGCA, for which the “relative binding free energy” value is -0.21 kcal/mol.
On to TTACGCACGTGGTATA, for which the “relative binding free energy” value was -0.22 kcal/mol.
In the case of GTTTTCACGTGTTAGA, the “relative binding free energy” value is 0.26 kcal/mol.
Turning to TGGCTCACGTGAGCGG, the “relative binding free energy” value stood at 0.14 kcal/mol.
As for GATGTCACGTGTTTAA, the figure is 0.17 kcal/mol; as for TAGAGCACGTGTATTA, 0.06 kcal/mol.
Under ATGAGCACGTGGGTAA stands -0.23 kcal/mol; under ATGGTCACGTGGATAG, 0.18 kcal/mol.
Regarding TGGTTCACGTGCTGAA, the “relative binding free energy” value came to 0.2 kcal/mol.
Consider GTGCGCACGTGTTGAG, for which the “relative binding free energy” value was found to be 0.03 kcal/mol.
CTTAGCACGTGAAGGG: the “relative binding free energy” value is 0.05 kcal/mol.
Under TAGTCCACGTGGGTTT stands -0.06 kcal/mol.
Under TAGGGCACGTGTTTTG stands -0.12 kcal/mol; under GGTCGCACGTGTGTTA, 0.1 kcal/mol.
Turning to TGGATCACGTGCGGAG, the “relative binding free energy” value was determined as 0.14 kcal/mol.
TCTTTCACGTGGTGGT: the “relative binding free energy” value was 0.25 kcal/mol.
As for ATTGCCACGTGCTTGG, the figure is -0.01 kcal/mol; as for CATAGCACGTGTGAAG, 0.07 kcal/mol; as for TTCTACACGTGGGGTT, -0.09 kcal/mol.
Turning to GCCGTCACGTGAGGTG, the “relative binding free energy” value amounted to 0.29 kcal/mol.
Turning to GTGGGCACGTGGATAT, the “relative binding free energy” value is -0.02 kcal/mol.
With TAGTGCACGTGGCAAT, the “relative binding free energy” value was -0.03 kcal/mol.
For the sequence TTTAACACGTGAGTGG, the “relative binding free energy” value worked out at 0.28 kcal/mol.
As to GCAGGCACGTGATAGT, the “relative binding free energy” value was determined as 0.03 kcal/mol.
Regarding TAGGTCACGTGTGCCT, the “relative binding free energy” value is 0.16 kcal/mol.
As for CGGTTCACGTGTCGGG, the figure is 0.24 kcal/mol; as for TTTTGCACGTGGAGCT, 0.11 kcal/mol.
Turning to GGTAGCACGTGGACGT, the “relative binding free energy” value was 0.02 kcal/mol.
For the sequence TAGTGCACGTGTAGAT, the “relative binding free energy” value worked out at 0.13 kcal/mol.
CTGTACACGTGGTATT: the “relative binding free energy” value is -0.07 kcal/mol.
Regarding GTGTTCACGTGTTAAT, the “relative binding free energy” value was found to be 0.33 kcal/mol.
As for ACTTGCACGTGGGAGT, the figure is -0.13 kcal/mol; as for TGATACACGTGGGTTA, -0.16 kcal/mol.
In the case of AGGTGCACGTGGGTTC, the “relative binding free energy” value is -0.16 kcal/mol.
On to AGAGGCACGTGGGTAA, for which the “relative binding free energy” value is -0.29 kcal/mol.
Under GTACACACGTGGTAGG stands 0.05 kcal/mol.
Consider AGGCACACGTGTGGGG, for which the “relative binding free energy” value amounted to 0.01 kcal/mol.
For the sequence CTGTGCACGTGAATTG, the “relative binding free energy” value stood at 0.33 kcal/mol.
As for GATATCACGTGTAAGT, the figure is 0.27 kcal/mol; as for AGGCGCACGTGTTAGT, 0 kcal/mol.
On to TATCGCACGTGAGTTT, for which the “relative binding free energy” value stood at 0.04 kcal/mol.
As to CTCTTCACGTGGTTGG, the “relative binding free energy” value is 0.11 kcal/mol.
As for AAGATCACGTGAGGTA, the “relative binding free energy” value amounted to 0.31 kcal/mol.
Turning to AAGAACACGTGGGTTA, the “relative binding free energy” value was -0.06 kcal/mol.
On to TTAGCCACGTGCGGGT, for which the “relative binding free energy” value is -0.18 kcal/mol.
As for GTTTACACGTGATAGG, the figure is 0.42 kcal/mol; as for TTATGCACGTGACGGG, 0.02 kcal/mol.
For GTCGTCACGTGAGAGT, the “relative binding free energy” value was 0.3 kcal/mol.
As to CAGAACACGTGAGGGT, the “relative binding free energy” value stood at 0.2 kcal/mol.
As for CATTACACGTGGTTTT, the “relative binding free energy” value is -0.01 kcal/mol.
Take AGGGCCACGTGATGTT: the “relative binding free energy” value is -0.02 kcal/mol.
Under CTTGTCACGTGTAAAT stands 0.13 kcal/mol; under GGTTGCACGTGTATCG, 0.12 kcal/mol.
As for TGGCGCACGTGGTCAG, the “relative binding free energy” value is -0.14 kcal/mol.
TTGCTCACGTGTAGGA: the “relative binding free energy” value was found to be 0.14 kcal/mol.
As to ATAAGCACGTGACGTG, the “relative binding free energy” value was 0 kcal/mol.
Take TGGTGCACGTGGCGCA: the “relative binding free energy” value is -0.28 kcal/mol.
For the sequence AAATTCACGTGGGAGG, the “relative binding free energy” value was found to be 0.15 kcal/mol.
In the case of GGGGGCACGTGCCCTG, the “relative binding free energy” value is -0.26 kcal/mol.
As to GGTGGCACGTGCTTGT, the “relative binding free energy” value was -0.11 kcal/mol.
Consider GGTCTCACGTGTAGTA, for which the “relative binding free energy” value is 0.26 kcal/mol.
Take TGCTACACGTGGGCTG: the “relative binding free energy” value was -0.07 kcal/mol.
As for ATTGGCACGTGCGTCG, the “relative binding free energy” value is -0.2 kcal/mol.
For the sequence CGCGTCACGTGTGGCT, the “relative binding free energy” value was 0.14 kcal/mol.
Under GGGGCCACGTGTGAAT stands 0.02 kcal/mol; under GGTAGCACGTGTGTAC, 0.09 kcal/mol; under CGGTTCACGTGTCTGT, 0.34 kcal/mol.
Consider GGGGGCACGTGAGATA, for which the “relative binding free energy” value came out at 0.14 kcal/mol.
As to TTGGACACGTGTGTCG, the “relative binding free energy” value is 0.12 kcal/mol.
As for AATGTCACGTGGGAAA, the “relative binding free energy” value was -0.04 kcal/mol.
Consider TAAATCACGTGAATGG, for which the “relative binding free energy” value was found to be 0.24 kcal/mol.
Consider AAAATCACGTGGGTTG, for which the “relative binding free energy” value is 0.07 kcal/mol.
For the sequence GAGTTCACGTGAGGTC, the “relative binding free energy” value amounted to 0.47 kcal/mol.
On to GCTGGCACGTGTGTGA, for which the “relative binding free energy” value is 0.02 kcal/mol.
Under GCTCGCACGTGATGGG stands 0.2 kcal/mol; under ATGTTCACGTGTTCAG, 0.29 kcal/mol; under TCGAGCACGTGTGTAT, -0.07 kcal/mol.
On to ATGAGCACGTGGCAGG, for which the “relative binding free energy” value is -0.24 kcal/mol.
For GGTTCCACGTGTGGGC, the “relative binding free energy” value was 0.17 kcal/mol.
As for TCAGACACGTGATGGT, the “relative binding free energy” value was found to be 0.25 kcal/mol.
On to GATGACACGTGTTGTT, for which the “relative binding free energy” value amounted to 0.13 kcal/mol.
Consider GAATGCACGTGAGGGT, for which the “relative binding free energy” value stood at 0.31 kcal/mol.
As for GTTTGCACGTGTTAGA, the “relative binding free energy” value stood at 0.08 kcal/mol.
Under TGCTACACGTGCGGTG stands 0.07 kcal/mol; under TACGTCACGTGCGGTG, 0.01 kcal/mol.
Regarding CTATGCACGTGAGAGG, the “relative binding free energy” value was 0.17 kcal/mol.
On to TGCGGCACGTGTGCTT, for which the “relative binding free energy” value is -0.11 kcal/mol.
GGTTGCACGTGTTACA: the “relative binding free energy” value was -0.07 kcal/mol.
As to TGGGGCACGTGTCCTG, the “relative binding free energy” value is -0.16 kcal/mol.
As for TCGGTCACGTGTGGTC, the “relative binding free energy” value turned out to be 0.18 kcal/mol.
Under TTTCACACGTGGTGTA stands -0.11 kcal/mol; under ATCATCACGTGAGGTG, 0.2 kcal/mol.
As for ATTCTCACGTGGGTCG, the figure is 0.13 kcal/mol.
Take GCGTTCACGTGACGTT: the “relative binding free energy” value was determined as 0.45 kcal/mol.
In the case of AGTGGCACGTGCATCG, the “relative binding free energy” value is -0.1 kcal/mol.
Regarding GGGGGCACGTGTTTAA, the “relative binding free energy” value is -0.11 kcal/mol.
Under GGTTTCACGTGGAGCT stands 0.07 kcal/mol.
